From PubChem BioAssay AID463173 (ICCB-Longwood Screening Facility, Harvard Medical School, 2010)
Hit rate of the full screen: of about 52,000 compounds, about 4,300 (8.3%) were called active. No stated cut-off is given here; in the data, active means survival mostly below about 52% (no sharp cut-off); inactive means mostly above about 56%. Some of the results follow.

Tested on: DeltatarO mutant
Assay: growth inhibition of S. aureus wild type versus tarO mutant, primary screen, teichoic acid synthesis inhibitors, RN4220, OD600 (AID 463173)
Details: OD600, 18 h, stronger effect = lower value, screened at 18.75 µg/mL (by protocol)

SMILES | survival
CC1CCN(C(=O)Cn2cc(SCc3ccccc3)c3ccccc32)CC1 | inactive: 46%
N#C/C(=C/c1ccc(-c2cc(C(=O)O)ccc2Cl)o1)C(=O)NCCc1c[nH]c2ccccc12 | active: 12%
CCC(C)NC(=O)Cn1c(=O)n(CC2CCC(C(=O)NC)CC2)c(=O)c2sccc21 (configuration not stated) | inactive: 89%
CCc1ccccc1NC(=O)N1CCN(c2nnc(C)c3c(C)n(-c4ccccc4)nc23)CC1 | inactive: 70%
CCOC(=O)c1c(NC(=O)CS(=O)(=O)c2ccc(C)cc2)sc2c1CCC(C)C2 (configuration not stated) | inactive: 102%
CC1CCN(C(=O)Cn2cc(SCc3cccc(F)c3)c3ccccc32)CC1 | inactive: 59%
O=C(C1CCC1)N1CCc2cc(S(=O)(=O)N3CCN(c4ccccc4)CC3)ccc21 | inactive: 72%
COc1cc2ccccc2cc1C(=O)N1CCN(c2nc3c(C)cc(C)cc3s2)CC1 | inactive: 130%
O=C(NC1CCCCC1)N(Cc1nc2ccccc2c(=O)[nH]1)C1CCCC1 | inactive: 85%
O=S(=O)(c1ccc(S(=O)(=O)N(Cc2ccccc2)Cc2ccco2)cc1)N1CCCCCC1 | inactive: 69%
CCOc1ccc(-n2cc(C(=O)Nc3ccccc3OCC)c3cc(OC)c(OC)cc3c2=O)cc1 | inactive: 61%
O=C(OCc1ccccc1Cl)c1ccc(-c2nnn(Cc3ccc(F)cc3)n2)cc1 | inactive: 130%
Cc1nn2c(=O)cc(COc3ccc(/C=C(\C#N)C(=O)Nc4ccccc4)cc3Cl)nc2s1 | active: 49%
O=c1oc2ccccc2cc1-c1nc2c(s1)CCCC2 | inactive: 100%
Brc1ccc2c(c1)NC(c1cccnc1)=NC(c1ccccc1)=N2 | inactive: 96%
CCOc1ccccc1C(=O)N1CC(=O)Nc2ccc(C)cc2C1c1ccccc1 (configuration not stated) | inactive: 144%
COc1ccc(NC(=O)Nc2cc(-c3cn4cccnc4n3)ccc2OC)cc1 | inactive: 95%
CCOc1ccccc1NC(=O)N1CCc2c(sc3c2CCCC3)C1c1ccccc1 (configuration not stated) | inactive: 94%
CCCOc1ccc(C2c3c(-c4ccccc4O)n[nH]c3C(=O)N2Cc2cccnc2)cc1 (configuration not stated) | active: 3%

SMILES | survival
NC(Cc1c[nH]c2ccccc12)C(=O)NCc1ccccc1 (configuration not stated) | inactive: 92%
CC(C)OCCCn1c(=O)c2ccccc2n2c(-c3cc(Cl)ccc3O)nnc12 | inactive: 89%
COc1cc(C(=O)Nc2ccc(-c3nc4ccccc4o3)c(O)c2)cc(OC)c1OC | inactive: 128%
Cc1cn2c(=O)cc(COC(=O)c3ccc(NC(=O)COc4ccc(C)c(C)c4)cc3)nc2s1 | inactive: 91%
COc1cc2c(cc1OC)C(COc1ccc(F)cc1)N(C(=O)Cc1ccccc1)CC2 (configuration not stated) | inactive: 87%
CCOc1ccc(-c2cc(C(=O)NCCCOC)c3c(-c4ccc(CC)cc4)[nH]nc3n2)cc1 | inactive: 79%
COC(=O)c1ccccc1NC(=O)c1cc(CN2CCOCC2)on1 | inactive: 97%
CCOC(=O)c1csc2c1CCC/C2=N/OC(C)=O | inactive: 86%
CCc1cccc(C)c1Nc1c(-c2cccs2)nc2nc(C)cc(C)n12 | inactive: 75%
COc1ccc(-c2cc3nc(C)c(CCC(=O)N4CCN(c5ccccc5F)CC4)c(C)n3n2)c(OC)c1 | inactive: 68%
Cc1ccc(NC(=O)Cn2c(=O)oc3cc(S(=O)(=O)N4CCCCC4)ccc32)c(C)c1 | inactive: 81%
CCC(=O)Nc1ccc(CC)cc1-c1nc2ccccc2n(CC(=O)Nc2ccccc2C)c1=O | inactive: 88%
N#Cc1c2c(c(-n3ccnc3)n3c1nc1ccccc13)CCC2 | inactive: 104%
COc1ccc(-c2onc(C)c2C)cc1S(=O)(=O)Nc1cc(Cl)ccc1C | inactive: 86%
CC(=C1C(=O)c2ccccc2C1=O)N1CCN(CCO)CC1 | inactive: 96%
O=C(CSc1nc2ccccc2nc1Cc1ccccc1F)Nc1cccc(C(F)(F)F)c1 | active: 35%
CCN(CC)c1ccc(NC(=O)CCS(=O)(=O)c2ccc3c(c2)oc(=O)n3C)c(C)c1 | inactive: 73%
Cc1ccc(CNc2ncnc3onc(C)c23)cc1 | inactive: 116%
O=C(NCc1cccs1)C1CCN(c2ccc(S(=O)(=O)N3CCOCC3)cc2Cl)CC1 | inactive: 69%

SMILES | survival
CCn1c(=O)cc(OCC(=O)N2CCN(c3cccc(Cl)c3)CC2)c2ccccc21 | inactive: 116%
CCCOc1ccc(NC(=O)CC2C(=O)N(c3ccc(F)cc3)C(=O)N2CC(C)C)cc1 (configuration not stated) | inactive: 64%
CCCCOc1ccc(CNC(=O)C2CCCN(c3nnc(-n4c(C)ccc4C)s3)C2)cc1 (configuration not stated) | inactive: 87%
NC(=O)c1cc(N)ccc1N1CCOCC1 | inactive: 67%
COc1cc(C(=O)N2CCC(c3nc4ccccc4s3)CC2)cc(OC)c1OC | inactive: 74%
Cc1ccc2c(c1)sc1nc(=O)n(-c3ccc(Cl)c(Cl)c3)c(=O)n12 | active: -6%
COc1ccc(C2=C(C)C(=NCc3ccc(OC(C)C)cc3)NS2(=O)=O)cc1 | inactive: 91%
Cc1ccc(S(=O)(=O)N2CCN(Cc3ccc4c(c3)OCO4)CC2)cc1 | inactive: 70%
CCc1ccc(-c2cc(C)no2)cc1S(=O)(=O)Nc1cc(OC)c(OC)c(OC)c1 | inactive: 94%
CCn1c(=O)c2sccc2n2c(CCC(=O)Nc3ccc(OC)cc3OC)nnc12 | inactive: 82%
CCc1ccccc1NC(=O)CN1C(=O)c2cccnc2Sc2ccccc21 | inactive: 86%
Cc1ccc(Cn2c(CNC(=O)Cc3cccc([N+](=O)[O-])c3)nc3cccnc32)cc1 | inactive: 70%
NC(=O)NC(=O)c1nc2nonc2[nH]c1=O | inactive: 91%
CC(NC(=O)CSc1nc(-c2cccc(Cl)c2)nc2cc(=O)[nH]n12)c1nc2ccccc2n1C (configuration not stated) | inactive: 68%
COc1ccc(-c2nc3ccccc3s2)cc1NC(=O)c1cccc([N+](=O)[O-])c1C | active: 38%
O=c1c2ccccc2n(Cc2c(F)cccc2Cl)c(=O)n1Cc1ccccc1 | inactive: 56%
CCn1c(=N)c(C(=O)NCC2CCCO2)cc2c(=O)n3cc(C)ccc3nc21 (configuration not stated) | inactive: 66%
O=S(=O)(NCC(c1ccccc1)N1CCc2ccccc21)c1ccccc1 (configuration not stated) | inactive: 89%
CCn1cc(C(=O)NCCc2ccc(Cl)cc2)c(=O)c2cc(S(=O)(=O)N3CCCCCC3)ccc21 | inactive: 65%
